The other results are listed elsewhere or left out.
T1: UNK ZnF1-3 (human, UniProt Q9C0B0 31-174)
T1 sequence: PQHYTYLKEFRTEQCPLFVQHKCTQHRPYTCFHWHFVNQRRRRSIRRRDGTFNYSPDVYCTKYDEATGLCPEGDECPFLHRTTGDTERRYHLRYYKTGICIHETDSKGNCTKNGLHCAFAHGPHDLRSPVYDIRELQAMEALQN

B1: chr19:15271381:15271382:-_ENSG00000074181_ENST00000263388|hu_hu|motif|central (ssRNA)
RNA: GGGAGUUCUACAGUCCGACGAUCACGCUGCAAGGCAAGGAUGCAGGAGGGUUGGUGGAAAGAGAAGAGGAUGAAAAAGACGGAAAGGAAGGAAGAGACAGAGAAAGAAAGGAGGCAGGACGGGGGUCUCUUUAGGCCCCCAAGCAACAGAGGAUUGAGCAUCA
B2: chr16:45382771:45382772:-_ENSMUSG00000022661_ENSMUST00000163230|mus_mus|mus_mus_mus_hu_True|1_58 (ssRNA)
RNA: GGGAGUUCUACAGUCCGACGAUCCUGGGUCAUGUUAUAAGACAAAUGGACAGGGAGGGCAUGCUUCUCAAAAAAUGUGAACUACUCUCUAAGACUAACAAUAUUUAUCUAGCUAUAAAAAUAAGUUAAAUGAAUAAACAUUACCAACAGAGGAUUGAGCAUCA
B3: chr2:157383019:157383020:-_ENSMUSG00000067787_ENSMUST00000109528|mus_hu|FALSE|FALSE (ssRNA)
RNA: GGGAGUUCUACAGUCCGACGAUCGCUUGAGCCCAGACACCCAGGUGAAAGAGCAACAUCUAUCUGUUGCUUCCUUUCUUAAAAAUGAAGUGGAGAAAAUACUGAAGAUUUGUGGACAACUAACAGUCAAGACAUGUUUCUGUCCAACAGAGGAUUGAGCAUCA
B4: chr14:76904430:76904431:+_ENSMUSG00000022010_ENSMUST00000022587|mus_mus|mus_mus_mus_hu_True|38_78 (ssRNA)
RNA: GGGAGUUCUACAGUCCGACGAUCUGCAGCCAAAAACACCCUCGUGGAAAAAAAGAGCAAGCUCCAGCAGCCUUGUAUAAGCUAGAUAAAAUCUUCUAGCUGUCUGCAGCCCAGGGAGAAACAGAAAACGGCAGCCCUAAUUUACAACAGAGGAUUGAGCAUCA
B5: chr12:118471567:118471568:-_ENSG00000176871_ENST00000315436|hu_mus|FALSE|FALSE (ssRNA)
RNA: GGGAGUUCUACAGUCCGACGAUCAGCAGGGAACCAAACACCAGAGUUCCUCUGACCACAACGGAGGAACUUCAAACCAUGCAGCCGCUGGCUGGAAAUAGGCAGCAGAAAUGCCCUACGUGGCAGGUACUUCCCAGUUAAGGGCAACAGAGGAUUGAGCAUCA
B6: chr14:78183846:78183847:+_ENSG00000119705_ENST00000557342|hu_hu|hu_hu_hu_mus_False|48_58 (ssRNA)
RNA: GGGAGUUCUACAGUCCGACGAUCUCUCAGAAAUCUUUCUUCAUCAGAUGUUUGAGCUCCGUGCAAAGCCUUUGCUCUUCUAGUGUGAACCUGGACCUAUGGGAGGGAAAGCACUGUCAGAAAAGGUAAUUUUUUUUUUAAAGACAACAGAGGAUUGAGCAUCA
B7: 61493008_61495760_3952_CDS_ENSG00000170921_ENST00000424789|human|control|control (ssRNA)
RNA: GGGAGUUCUACAGUCCGACGAUCGCGUUUUGCCCUUGCUCUCGCAUAGUAAGCUUCAUAAGAUUUCGGUUUCAGCUCCAGGGCCUUAGUAGCAAAUUCCUCCGCCAUUCCAAAAUCGUUCAUUUUCCUGCGACACCGAGAGAGCAACAGAGGAUUGAGCAUCA
B8: 84624154_84629161_632_CDS_ENSG00000065615_ENST00000369681|human|control|control (ssRNA)
RNA: GGGAGUUCUACAGUCCGACGAUCAUAUAUGGCAAUGGUGACUAAAGAGUCUGUUUGGAACCAAUCAUAGCUUGGAUAACUAGGACCUUCUUUGGCAAGUGUAUCUGUCACUUGGCUCUUGGGAAGCAUGCCAUUUAAGACUUUCAACAGAGGAUUGAGCAUCA
B9: 135203144_135203264_3963_CDS_ENSG00000107290_ENST00000224140|human|control|control (ssRNA)
RNA: GGGAGUUCUACAGUCCGACGAUCUGGCUCAGGACACUGACGAAAUUUCUUUGGCGGCACUAUAGCAGGAGUUGUUCUACAACUUAGGUAAUUUGAACUUCUAUUCUGUCCUUUUUUGGCAUCUGAAUGAGUUUUCUUAGGGGUCAACAGAGGAUUGAGCAUCA
B10: chr1:244855233:244855234:+_ENSG00000121644_ENST00000302550|hu_mus|hu_hu_hu_mus_True|38_98 (ssRNA)
RNA: GGGAGUUCUACAGUCCGACGAUCCAUCAGAUGGUAGGCAUUGCCUUUAUACUCUUUCCCCAGUUCUUCUACAAUUUUCUCUAUAUCAUCUUCUAGAAAGUCCGUGCUUCCUAGAACAACAGCUUCUUUAAAUUUAAAUGUUUCCAACAGAGGAUUGAGCAUCA
B11: chr12:67691335:67691336:+_ENSG00000111530_ENST00000540319|hu_mus|FALSE|FALSE (ssRNA)
RNA: GGGAGUUCUACAGUCCGACGAUCCAUGGAGUCAUUUUUGGACAACUCUGACAACAGAUGUUCAAUAAGGUCUACAAAAACUAUAUUUCCGCAGCUCAUAACUAGGUGGCCAAGAGCAAUAAUUGUUCUUUUCCUCACUGCAAGCAACAGAGGAUUGAGCAUCA
B12: chr7:90019433:90019434:+_ENSMUSG00000057706_ENSMUST00000082237|mus_hu|mus_mus_mus_hu_True|78_108 (ssRNA)
RNA: GGGAGUUCUACAGUCCGACGAUCAAAAAUACAGUGUUUCUUUGCCAUAAGGCCAUAUAAAAAUAAAAAGAUUUAACCCAGCUACAAAAAAGUUCACUGAACUUAAAUUAAAAUACUUGUAAACAUCUUUGCAAUAUGAAAUAUCAACAGAGGAUUGAGCAUCA
B13: chr4:17845017:17845018:+_ENSG00000109805_ENST00000514176|hu_mus|hu_hu_hu_mus_False|98_108 (ssRNA)
RNA: GGGAGUUCUACAGUCCGACGAUCGCUUCCUAACUUAGAUCUUCAUUUAAGGAACUCUGCAAGGUUAAGUUUACUUUUCUGUAGCGCAGCUGUUUUGGCUCGUCUGGGUAAUCUCAUCUUCAUUUCUGAUGGUGGUUCAUGAUCCAACAGAGGAUUGAGCAUCA
B14: chr11:77340908:77340909:-_ENSG00000074201_ENST00000525064|hu_hu|hu_hu_hu_mus_True|8_18 (ssRNA)
RNA: GGGAGUUCUACAGUCCGACGAUCGUUUGGAUCCCUGGACACCGCAUGUAAACUAAUGGUGGGGUAUUCCAGUGAGAAUCCUAAUCCCGAACCAUCUAACCAGGACAGGCGGCUCUCAGCGAUGUAAAGGGUACCAGUGCCGAGCAACAGAGGAUUGAGCAUCA
B15: chr16:94651144:94651145:+_ENSMUSG00000040785_ENSMUST00000117648|mus_hu|mus_mus_mus_hu_True|48_48 (ssRNA)
RNA: GGGAGUUCUACAGUCCGACGAUCAUUUUCUUGAAUCAAGUGGCGAAUAACAUAGUCCACUGCUUCAUUUAGAAAAUUUCUGCUAGAAAAGCAUGUUGUAUAGUCUUCUGUGCUCAAAACUUUCCAAGAAAGCAAUUCUUUGAGCAACAGAGGAUUGAGCAUCA
B16: chr2:47388980:47388981:-_ENSG00000143933_ENST00000272298|hu_hu|motif|central (ssRNA)
RNA: GGGAGUUCUACAGUCCGACGAUCUUCAUCUGUUAACUUCUCUCCAAGGUUUGUCAUCACAUGGCGAAGUUCUGCAGCACGGAUAUAGCCAUUGCCAUCCUUAUCAAACACACGGAAUGCUUCUCUAAUUUCUUCUUCACUGUCCAACAGAGGAUUGAGCAUCA
B17: chr1:163112212:163112213:-_ENSG00000143248_ENST00000313961|hu_hu|hu_hu_hu_mus_False|1_98 (ssRNA)
RNA: GGGAGUUCUACAGUCCGACGAUCUUUUAUUAUCAGUAAGCAUGAGUUACAUACUAGGCAAAGUAUUGGAUACAAUAAUCAGGAAACAAACACUAUUGGUCCAGAAUUUAAAACUUUAUGAGCGAAGUGCUGGCACAGGAUUUACAACAGAGGAUUGAGCAUCA
B18: chr5:177634160:177634161:+_ENSG00000197451_ENST00000358344|hu_hu|FALSE|FALSE (ssRNA)
RNA: GGGAGUUCUACAGUCCGACGAUCACUGACAGUAUGGAACUUUUUCUCCAGAACCUUCUUCACGGGUUCUUCUUCUUUAAAGGUGAUAAACACAAAACCUCGUCUUUUGUUCAACUUUGGAUCCAUUGGCAAUUCAAUGGCCUCCAACAGAGGAUUGAGCAUCA
B19: chr3:55808730:55808731:-_ENSMUSG00000027799_ENSMUST00000029374|mus_hu|FALSE|FALSE (ssRNA)
RNA: GGGAGUUCUACAGUCCGACGAUCUGAAGUUGUAUGGAUUUUGAAUUCUUUUUCUUCUAUUAUACUGGAUGUACAAGUUAAGUCUACGCUACCGGUCAUGUGAGCAAGCAAUCCAAGAUCAUCACUAACACCAAGAUGUACUUGCAACAGAGGAUUGAGCAUCA
B20: chr3:176767854:176767855:-_ENSG00000177565_ENST00000430069|hu_hu|hu_hu_hu_mus_False|78_108 (ssRNA)
RNA: GGGAGUUCUACAGUCCGACGAUCGACAUCCUUGUUGCUGGGCACGUCCUGCCCUCCUUCUCGUAUACAGUGUCUAAGCACGAGCUGCGUAGGGCCACUCGUGCUGUUCUCACUGAGGUUCCAGAUUCUUGCCGUGGAGUCUCCCAACAGAGGAUUGAGCAUCA
B21: 117847759_117847879_214_3pUTR_ENSMUSG00000017715_ENSMUST00000132676|mouse|control|control (ssRNA)
RNA: GGGAGUUCUACAGUCCGACGAUCGAGGAGGGAUGCUCAGCGACCAGACUACCUGUCAGACUUCCAGCUGCUACCCUGCGCUCACAUAAAGGUCCAGGAGGAUUAAUAACAGCUCAGCGCCCGGAGUCCUGUCAGACUGAUAGCCAACAGAGGAUUGAGCAUCA
B22: 25593832_25616512_97_3pUTR_ENSG00000170558_ENST00000399380|human|control|control (ssRNA)
RNA: GGGAGUUCUACAGUCCGACGAUCAUAUUGUACUUUUCUUUUUCCAUUGCAGUUGCUAAACUUCACUGAAAGGAAAACAUACAAUUCUGCUUGGUUCUUUAAUUUCUCAGUGAAGAUACACACAUAACGCCUUAAUAAAAACAUCAACAGAGGAUUGAGCAUCA

Molecular target: T1, UNK ZnF1-3
Experiment: nsRBNS (natural sequence RNA bind-n-seq); RBNS binding buffer (assumed for nsRBNS): 25 mM Tris pH 7.5, 150 mM KCl, 3 mM MgCl2, 0.01% Triton X-100, 500 ug/ml BSA, 20 U/ml SUPERase-In, 4 C; UNK is unkempt and MSI1 is Musashi-1; names of the RNAs are library labels; protein concentration not given here; high values mean tight binding

| Binder | binding signal [enrichment R] |
| --- | --- |
| B1 | 2.14 |
| B2 | 1.83 |
| B3 | 1.45 |
| B4 | 2.63 |
| B5 | 1.09 |
| B6 | 1 |
| B7 | 1.12 |
| B8 | 0.833 |
| B9 | 1.18 |
| B10 | 1.24 |
| B11 | 0.889 |
| B12 | 1.45 |
| B13 | 0.52 |
| B14 | 1.31 |
| B15 | 0.373 |
| B16 | 0.864 |
| B17 | 1.41 |
| B18 | 0.397 |
| B19 | 0.759 |
| B20 | 0.431 |
| B21 | 1.48 |
| B22 | 0.662 |

— article PMC12136788
